Test results as given in the DeepSol protein solubility set.

Assay: soluble on expression in E. coli; label from the status in PepcDB or PDB records

Row | Sequence | soluble on expression in E. coli
1 | IGDEPLENYLDTEYFGTIGIGTPAQDFTVIFDTGSSNLWVPSVYCSSLACSDHNQFNPDDSSTFEATSQELSITYGTGSMTGILGYDTVQVGGISDTNQIFGLSETEPGSFLYYAPFDGILGLAYPSISASGATPVFDNLWDQGLVSQDLFSVYLSSNDDSGSVVLLGGIDSSYYTGSLNWVPVSVEGYWQITLDSITMDGETIACSGGCQAIVDTGTSLLTGPTSAIANIQSDIGASENSDGEMVISCSSIDSLPDIVFTINGVQYPLSPSAYILQDDDSCTSGFEGMDVPTSSGELWILGDVFIRQYYTVFDRANNKVGLAPVA | soluble
2 | MGKRAAHIGLRALADLATPMAVRVAATLRVADHIAAGHRTAAEIASAAGAHADSLDRLLRHLVAVGLFTRDGQGVYGLTEFGEQLRDDHAAGKRKWLDMNSAVGRGDLGFVELAHSIRTGQPAYPVRYGTSFWEDLGSDPVLSASFDTLMSHHLELDYTGIAAKYDWAALGHVVDVGGGSGGLLSALLTAHEDLSGTVLDLQGPASAAHRRFLDTGLSGRAQVVVGSFFDPLPAGAGGYVLSAVLHDWDDLSAVAILRRCAEAAGSGGVVLVIEAVAGDEHAGTGMDLRMLTYFGGKERSLAELGELAAQAGLAVRAAHPISYVSIVEMTAL | soluble
3 | MKSLSPAPLVELQQICKHYTSGQNVVKALDGVDLTIRHGEFLAILGPSGSGKSTLMNVLGCLDKPTAGRYQLDGHPVDSLSTQQLAAIRNQKIGFVFQSFNLLEYASALDNVALPLVYAGVKAKDRRRRATELLTRVGLADRLDHKPNQLSGGQKQRVAIARALINQPQILLADEPTGALDSKSGAEIEALFNELHREGRTIIVVTHDNELAKRTKRIVTIRDGQVVSDEPTA | not soluble
